SMILES strings stand for the structures. In all, about 48,000 compounds went through this assay and about 1,200 (2.5%) were called active. Not shown: some 2% with an inconclusive outcome.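 Rule for the calls: active = activation of at least 60% and not above a set upper limit (about 1 call in 100 departs from these limits); inconclusive = activation of 40% to 60%, or above that upper limit; inactive = activation under 40%.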 Some of the results follow.

UniProt O75388, sequence (O75388 whole entry, looked up, the tested form may be a part): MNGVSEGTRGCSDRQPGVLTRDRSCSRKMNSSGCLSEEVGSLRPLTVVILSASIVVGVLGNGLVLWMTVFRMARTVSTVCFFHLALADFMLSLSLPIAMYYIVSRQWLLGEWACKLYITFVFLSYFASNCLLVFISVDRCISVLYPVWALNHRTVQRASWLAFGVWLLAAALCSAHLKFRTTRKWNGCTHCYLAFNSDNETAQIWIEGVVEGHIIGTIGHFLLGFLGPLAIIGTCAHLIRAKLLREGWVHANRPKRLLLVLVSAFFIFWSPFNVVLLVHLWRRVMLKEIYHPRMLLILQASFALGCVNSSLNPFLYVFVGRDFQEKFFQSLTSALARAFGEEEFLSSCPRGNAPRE

The assay addresses Probable G-protein coupled receptor 32 (Homo sapiens) (UniProt O75388). Description: qHTS for Agonists of Human Resolvin D1 Receptor DRV1. Note: 0% is about no effect. The conditions noted are these: CHO-K1 GPR32 beta-arrestin PathHunter luminescence, 90 min; at 76.9 µM; active compounds read high; zero percent set by DMSO-only wells. In outline:
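Agonism was scored as beta-arrestin recruitment to ProLink-fused GPR32 in stably transfected CHO-K1 cells, giving a chemiluminescent beta-Gal signal; compounds were incubated 90 min at 37 °C.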
Background: In qHTS, concentration-response curves come from the screen itself.
Take `CCOc1ccc(C2C(=O)N(C3CCCCC3)CC(=O)N2CCC2=CCCCC2)cc1OC` (stereo not given): the activation was inactive: -35.7%.

Turning to `Cc1cccc(OC(=O)c2cc(-c3ccc4c(c3)OCCO4)on2)c1C`, the activation is inactive: 7.98%.

In the case of `COc1cccc(CNC(=O)C(Cc2ccccc2)NS(=O)(=O)c2ccc3c(c2)oc(=O)n3C)c1` (stereo not given), the activation was inactive: 16.3%.

With `Cc1cc2[nH]c(=O)c(=O)[nH]c2cc1S(=O)(=O)Nc1ccc(OC(F)(F)F)cc1`, the activation is inactive: 4.38%.

In the case of `O=C(Nc1cccc(C(=O)Nc2ccc(S(=O)(=O)O)c3cc(S(=O)(=O)O)cc(S(=O)(=O)O)c23)c1)Nc1cccc(C(=O)Nc2ccc(S(=O)(=O)O)c3cc(S(=O)(=O)O)cc(S(=O)(=O)O)c23)c1`, the activation is inactive: 1.59%.

Turning to `Cc1cccc(NC(=O)c2ccc3nc(CCc4ccccc4)oc3c2)c1C`, the activation is inactive: -12.3%.

On to `COc1ccc(-c2noc(CSc3nc(N)cc(=O)[nH]3)n2)cc1`, for which the activation is active: 98.3%.

Regarding `Cc1cccc(N2CCN(c3ccc(NC(=O)c4ccccc4)cc3C(=O)O)CC2C)c1` (stereo not given), the activation is inactive: 29.6%.

Turning to `Cc1ncc(CO)c2c1Oc1nc(-c3ccc(F)cc3)nc(SCc3ccc(F)cc3Cl)c1C2`, the activation was inactive: 38.6%.

Turning to `O=C(NCc1ccc(F)cc1)c1ccc2c(c1)nc1n2CCCCC1`, the activation was inactive: -8.4%.

On to `CCOc1ccccc1C(=O)Nc1ccc2nc3c(c(Nc4ccc(OC)c(OC)c4)c2c1)CCCC3`, for which the activation was inactive: -20.6%.

On to `CCOC(=O)c1ccc(NC(=O)CN2Cc3ccccc3C2=O)cc1`, for which the activation was inactive: -6.32%.

Turning to `COc1ccccc1C(=O)Nc1onc2c1CCCC2`, the activation was inactive: -14.5%.

Turning to `O=C(Nc1ccccc1)c1ccc2c(O)c(S(=O)(=O)c3ccc(Cl)cc3)c(=O)[nH]c2c1`, the activation was inactive: -11.9%.

`Cc1cc(Nc2cccc(Cl)c2)nc2ccc(NC(=O)c3cccc(N(C)C)c3)cc12`: the activation was inactive: 5.59%.

For `COc1ccc(-c2noc(-c3nnn(-c4ccc(C(C)C)cc4)c3C)n2)cc1OC`, the activation is inactive: -12.4%.

With `CCCS(=O)(=O)N1CCC(N2CCN(Cc3ccc(F)cc3)C(=O)C2=O)CC1`, the activation was inactive: 9.28%.

Turning to `Cc1cc(O)c2c(C)c(CC(=O)N3CCCCC3)c(=O)oc2c1`, the activation is inactive: 15.9%.

As for `CCn1c(=O)c2sccc2n2c(CCC(=O)Nc3ccc(OC)cc3OC)nnc12`, the activation was inactive: 36.7%.

In the case of `CCc1ccccc1NC(=O)CN1C(=O)c2cccnc2Sc2ccccc21`, the activation was inactive: -16.3%.

In the case of `COc1ccc(-c2nc3ccccc3s2)cc1NC(=O)c1cccc([N+](=O)[O-])c1C`, the activation was inactive: -12.9%.

Turning to `COCc1nc2ccccc2n1Cc1cccc(C)c1`, the activation was inactive: 1.66%.

With `O=c1c2ccccc2n(Cc2c(F)cccc2Cl)c(=O)n1Cc1ccccc1`, the activation is inactive: -4.3%.

Take `CCn1c(=N)c(C(=O)NCC2CCCO2)cc2c(=O)n3cc(C)ccc3nc21` (stereo not given): the activation is inactive: -9.07%.

For `O=S(=O)(NCC(c1ccccc1)N1CCc2ccccc21)c1ccccc1` (stereo not given), the activation was inactive: -24.1%.

As for `Cc1ccc(Cn2c(CNC(=O)Cc3cccc([N+](=O)[O-])c3)nc3cccnc32)cc1`, the activation is inactive: -14.9%.

Turning to `CCCOc1ccc(NC(=O)CC2C(=O)N(c3ccc(F)cc3)C(=O)N2CC(C)C)cc1` (stereo not given), the activation is inactive: -21.4%.

On to `CCn1c(=O)cc(OCC(=O)N2CCN(c3cccc(Cl)c3)CC2)c2ccccc21`, for which the activation was inactive: 18.2%.

For `Cc1ccc2c(c1)sc1nc(=O)n(-c3ccc(Cl)c(Cl)c3)c(=O)n12`, the activation is inactive: 4.88%.

As to `COc1ccc(C2=C(C)C(=NCc3ccc(OC(C)C)cc3)NS2(=O)=O)cc1`, the activation was inactive: -14.8%.

As for `Cc1ccc(S(=O)(=O)N2CCN(Cc3ccc4c(c3)OCO4)CC2)cc1`, the activation is inactive: 0.184%.

For the compound `CCc1ccc(-c2cc(C)no2)cc1S(=O)(=O)Nc1cc(OC)c(OC)c(OC)c1`, the activation was inactive: -9.88%.

`CCCCOc1ccc(CNC(=O)C2CCCN(c3nnc(-n4c(C)ccc4C)s3)C2)cc1` (stereo not given): the activation is inactive: -9.46%.

For the compound `CC(=O)Nc1ccc(S(=O)(=O)Nc2cccc(-c3ccc(N4CCCCCC4)nn3)c2)cc1`, the activation is inactive: -0.188%.

Consider `COc1ccc(C(=O)NCCn2cc(SCC(=O)Nc3ccc(F)cc3)c3ccccc32)cc1`, for which the activation was inactive: 22.8%.

Consider `CCNc1ccc(-c2nc(-c3ccncc3)no2)cc1[N+](=O)[O-]`, for which the activation was inactive: 5.73%.

With `CNC(=O)c1cc(Oc2ccc(NC(=O)Nc3ccc(Cl)c(C(F)(F)F)c3)cc2)ccn1`, the activation was active: 92%.

For the compound `COc1cccc2c1C(=O)c1c(O)c3c(c(O)c1C2=O)C[C@@](O)(C(C)=O)C[C@@H]3O[C@H]1C[C@H](N)[C@H](O)[C@H](C)O1`, the activation was inactive: -63.7%.

Turning to `Cc1nn(CCCC(=O)Nc2cccc(C(F)(F)F)c2)c(=O)c2nn(-c3ccccc3)c(C)c12`, the activation is inactive: -8.79%.

For `CCn1cc(C(=O)NCCc2ccc(Cl)cc2)c(=O)c2cc(S(=O)(=O)N3CCCCCC3)ccc21`, the activation is inactive: -1.44%.

Take `CCN1CCN(C(=O)N[C@@H](C(=O)N[C@@H]2C(=O)N3[C@@H]2SC(C)(C)[C@H]3C(=O)O)c2ccccc2)C(=O)C1=O`: the activation is inactive: -7.07%.

Regarding `O=C(COc1ccccc1F)Nc1ccc2nc(SCC(=O)N3CCCC3)sc2c1`, the activation was inactive: 10.9%.

In the case of `Cc1ccc2c(=O)c(C(=O)c3ccccc3)cn(CC(=O)Nc3ccccc3C)c2n1`, the activation was inactive: -1.36%.

In the case of `COc1cc(NC(=O)Cn2cnc3sc(C)c(S(=O)(=O)N4CCC(C)CC4)c3c2=O)cc(OC)c1OC`, the activation was inactive: 4.2%.

As for `CCOc1ccccc1C(=O)N1CC(=O)Nc2ccc(C)cc2C1c1ccccc1` (stereo not given), the activation was inactive: -19.7%.

As to `Cc1ccc(CN2c3ccccc3-c3nc(SCC(=O)Nc4c(C)cc(C)cc4C)ncc3S2(=O)=O)cc1`, the activation is inactive: -17.5%.

Take `CCOc1ccccc1NC(=O)N1CCc2c(sc3c2CCCC3)C1c1ccccc1` (stereo not given): the activation was inactive: -1.47%.

Regarding `O=C(OCc1ccccc1Cl)c1ccc(-c2nnn(Cc3ccc(F)cc3)n2)cc1`, the activation is inactive: 1.54%.

Consider `Cc1nn2c(=O)cc(COc3ccc(/C=C(\C#N)C(=O)Nc4ccccc4)cc3Cl)nc2s1`, for which the activation was inactive: -0.0838%.

With `Brc1ccc2c(c1)NC(c1cccnc1)=NC(c1ccccc1)=N2`, the activation was inactive: -11.3%.

The record behind these values is PubChem BioAssay AID1346428 (National Center for Advancing Translational Sciences (NCATS), 2018).
